Holding throughout (experiment): cell-based or functional assay
Assay [1] concerns the target GCGR.
The next assay concerns the target β-klotho (KLB).
Assay [2] deals with T1, human GLP-1R (human, UniProt P43220).
Assay [3] has as its target GCGR. This is another data set of the same source.
Assay [4] concerns the target T1, human GLP-1R. This is another data set of the same source.

B1: A352L1F6L5M2 (Fc fusion)
chain: HSQGTFTSDYSKYLDSQAAQDFVQWLLAGGPSSGAPPPSGGGGSGGGGSGGGGSA[letters of human IgG4 Fc with S228P N297A (EU numbers) omitted]GGGGAGGGGAGGGGAHPIPDSSPLLQFGGQVRQRYLYTDDAQQTEAHLEIREDGTVGGAADQSPESLLQLKALKPGVIQILGVKTSRFLCQRPDGALYGSLHFDPEACSFRERLLEDGYNVYQSEAHGLPLHCPGNKSPHRDPAPRGPCRFLPLPGLPPALPEPPGILAPQPPDVGSSDPLSMVGGSQGRSPSYES
B1: in the assay with GCGR [1], the “GCGR agonist activity (EC50, nM)” value amounted to 1.46 nM. The “FGF21 activity (EC50, nM)” value in the assay with β-klotho (KLB) came to 0.85 nM. Also, the “GLP-1 R agonist activity (EC50, nM)” value with human GLP-1R [2] is 1.67 nM.

B2: A137L1F6L5M2 (Fc fusion)
chain: YSEGTFTSDYSKYLDSQAAQDFVQWLLDGGPSSGAPPPSGGGGSGGGGSGGGGSA[letters of human IgG4 Fc with S228P N297A (EU numbers) omitted]GGGGAGGGGAGGGGAHPIPDSSPLLQFGGQVRQRYLYTDDAQQTEAHLEIREDGTVGGAADQSPESLLQLKALKPGVIQILGVKTSRFLCQRPDGALYGSLHFDPEACSFRERLLEDGYNVYQSEAHGLPLHCPGNKSPHRDPAPRGPCRFLPLPGLPPALPEPPGILAPQPPDVGSSDPLSMVGGSQGRSPSYES
As to B2, in the assay with GCGR [1], the “GCGR agonist activity (EC50, nM)” value was determined as 37.7 nM. In addition, the “FGF21 activity (EC50, nM)” value with β-klotho (KLB) was 0.79 nM. Moreover, the “GLP-1 R agonist activity (EC50, nM)” value in the assay with human GLP-1R [2] is 51.9 nM.

B3: A382L1F6L5M2 (Fc fusion)
chain: HSQGTFTSDYSKYLDSQAAQDFVQWLLDGGPSSGAPPPSGGGGSGGGGSGGGGSA[letters of human IgG4 Fc with S228P N297A (EU numbers) omitted]GGGGAGGGGAGGGGAHPIPDSSPLLQFGGQVRQRYLYTDDAQQTEAHLEIREDGTVGGAADQSPESLLQLKALKPGVIQILGVKTSRFLCQRPDGALYGSLHFDPEACSFRERLLEDGYNVYQSEAHGLPLHCPGNKSPHRDPAPRGPCRFLPLPGLPPALPEPPGILAPQPPDVGSSDPLSMVGGSQGRSPSYES
Take B3: the “GCGR agonist activity (EC50, nM)” value with GCGR [1] was 1.34 nM. Besides, the “FGF21 activity (EC50, nM)” value with β-klotho (KLB) was 1.54 nM. The “GLP-1 R agonist activity (EC50, nM)” value with human GLP-1R [2] amounted to 1.21 nM.

B4: A175L1F6L5M2 (Fc fusion)
chain: YSEGTFTSDYSKYLDSQAAQDFVQWLLAGGPSSGAPPPSGGGGSGGGGSGGGGSA[letters of human IgG4 Fc with S228P N297A (EU numbers) omitted]GGGGAGGGGAGGGGAHPIPDSSPLLQFGGQVRQRYLYTDDAQQTEAHLEIREDGTVGGAADQSPESLLQLKALKPGVIQILGVKTSRFLCQRPDGALYGSLHFDPEACSFRERLLEDGYNVYQSEAHGLPLHCPGNKSPHRDPAPRGPCRFLPLPGLPPALPEPPGILAPQPPDVGSSDPLSMVGGSQGRSPSYES
Take B4: the “GCGR agonist activity (EC50, nM)” value in the assay with GCGR [1] is 46.3 nM. Further, the “FGF21 activity (EC50, nM)” value with β-klotho (KLB) came to 0.73 nM. The “GLP-1 R agonist activity (EC50, nM)” value in the assay with human GLP-1R [2] came out at 48.9 nM.

B5: A232L1F6 (Fc fusion)
chain: HSQGTFTSDYSKYLDEQAAQDFVQWLLAGGPSSGAPPPSGGGGSGGGGSGGGGSA[letters of human IgG4 Fc with S228P N297A (EU numbers) omitted]
Consider B5, for which the “EC50 (nM) GCGR” value with GCGR [3] turned out to be 1.45 nM. Moreover, in the assay with human GLP-1R [4], the “EC50 (nM) GLP-1R” value turned out to be 2.79 nM.

B6: A395L1F6 (Fc fusion)
chain: HSQGTFTSDYSKYLDEEAAQDFVQWLLAGGPSSGAPPPSGGGGSGGGGSGGGGSA[letters of human IgG4 Fc with S228P N297A (EU numbers) omitted]
Take B6: in the assay with GCGR [3], the “EC50 (nM) GCGR” value is 1.23 nM. The “EC50 (nM) GLP-1R” value in the assay with human GLP-1R [4] came to 1.74 nM.

B7: A402L1F6 (Fc fusion)
chain: HSQGTFTSDYSKYLDEEAAQDFVQWLLDGGPSSGAPPPSGGGGSGGGGSGGGGSA[letters of human IgG4 Fc with S228P N297A (EU numbers) omitted]
On to B7, for which, in the assay with GCGR [3], the “EC50 (nM) GCGR” value came to 1.32 nM. The “EC50 (nM) GLP-1R” value with human GLP-1R [4] is 1.85 nM.

B8: A352L1F6 (Fc fusion)
chain: HSQGTFTSDYSKYLDSQAAQDFVQWLLAGGPSSGAPPPSGGGGSGGGGSGGGGSA[letters of human IgG4 Fc with S228P N297A (EU numbers) omitted]
Regarding B8, in the assay with GCGR [3], the “EC50 (nM) GCGR” value was 1.44 nM. Besides, in the assay with human GLP-1R [4], the “EC50 (nM) GLP-1R” value turned out to be 1.7 nM.

B9: A382L1F6 (Fc fusion)
chain: HSQGTFTSDYSKYLDSQAAQDFVQWLLDGGPSSGAPPPSGGGGSGGGGSGGGGSA[letters of human IgG4 Fc with S228P N297A (EU numbers) omitted]
For the molecule B9, the “EC50 (nM) GCGR” value with GCGR [3] is 1.67 nM. In the assay with human GLP-1R [4], the “EC50 (nM) GLP-1R” value turned out to be 1.74 nM.

B10: A382L1F9L5M2 (Fc fusion)
chain: HSQGTFTSDYSKYLDSQAAQDFVQWLLDGGPSSGAPPPSGGGGSGGGGSGGGGSA[letters of human IgG1 Fc with changes omitted]GGGGAGGGGAGGGGAHPIPDSSPLLQFGGQVRQRYLYTDDAQQTEAHLEIREDGTVGGAADQSPESLLQLKALKPGVIQILGVKTSRFLCQRPDGALYGSLHFDPEACSFRERLLEDGYNVYQSEAHGLPLHCPGNKSPHRDPAPRGPCRFLPLPGLPPALPEPPGILAPQPPDVGSSDPLSMVGGSQGRSPSYES
On to B10, for which the “GCGR agonist activity (EC50, nM)” value with GCGR [1] came to 1.16 nM. Also, the “FGF21 activity (EC50, nM)” value in the assay with β-klotho (KLB) amounted to 0.77 nM. Moreover, the “GLP-1 R agonist activity (EC50, nM)” value in the assay with human GLP-1R [2] stood at 1.26 nM.

B11: A382L1F7L5M2 (Fc fusion)
chain: HSQGTFTSDYSKYLDSQAAQDFVQWLLDGGPSSGAPPPSGGGGSGGGGSGGGGSA[letters of human IgG4 Fc with S228P F234A L235A (EU numbers) omitted]GGGGAGGGGAGGGGAHPIPDSSPLLQFGGQVRQRYLYTDDAQQTEAHLEIREDGTVGGAADQSPESLLQLKALKPGVIQILGVKTSRFLCQRPDGALYGSLHFDPEACSFRERLLEDGYNVYQSEAHGLPLHCPGNKSPHRDPAPRGPCRFLPLPGLPPALPEPPGILAPQPPDVGSSDPLSMVGGSQGRSPSYES
As for B11, in the assay with GCGR [1], the “GCGR agonist activity (EC50, nM)” value stood at 1.35 nM. Further, the “FGF21 activity (EC50, nM)” value with β-klotho (KLB) was determined as 0.81 nM. Besides, the “GLP-1 R agonist activity (EC50, nM)” value with human GLP-1R [2] came to 1.18 nM.

B12: A137L1F7L5M2 (Fc fusion)
chain: YSEGTFTSDYSKYLDSQAAQDFVQWLLDGGPSSGAPPPSGGGGSGGGGSGGGGSA[letters of human IgG4 Fc with S228P F234A L235A (EU numbers) omitted]GGGGAGGGGAGGGGAHPIPDSSPLLQFGGQVRQRYLYTDDAQQTEAHLEIREDGTVGGAADQSPESLLQLKALKPGVIQILGVKTSRFLCQRPDGALYGSLHFDPEACSFRERLLEDGYNVYQSEAHGLPLHCPGNKSPHRDPAPRGPCRFLPLPGLPPALPEPPGILAPQPPDVGSSDPLSMVGGSQGRSPSYES
With B12, the “GCGR agonist activity (EC50, nM)” value with GCGR [1] stood at 41.4 nM. For the same molecule, in the assay with β-klotho (KLB), the “FGF21 activity (EC50, nM)” value amounted to 0.71 nM. The “GLP-1 R agonist activity (EC50, nM)” value in the assay with human GLP-1R [2] amounted to 37.5 nM.

For the origin of these results see US20220340635A1 (ZHEJIANG DOER BIOLOGICS, published 2022).
